Results: paper PMC4336329 (PLoS ONE, 2015)
About 2,200 (0.71%) of roughly 310,000 compounds showed an effect of 50% or more. Effects have a minus sign here. Some of the results follow.

What follows are compounds tested against human ether-à-go-go-related gene (hERG) potassium channel (human, UniProt Q12809) (assay: primary screen, population patch clamp on CHO cells stably expressing hERG).
Sequence of human ether-à-go-go-related gene (hERG) potassium channel (Q12809 whole entry, looked up): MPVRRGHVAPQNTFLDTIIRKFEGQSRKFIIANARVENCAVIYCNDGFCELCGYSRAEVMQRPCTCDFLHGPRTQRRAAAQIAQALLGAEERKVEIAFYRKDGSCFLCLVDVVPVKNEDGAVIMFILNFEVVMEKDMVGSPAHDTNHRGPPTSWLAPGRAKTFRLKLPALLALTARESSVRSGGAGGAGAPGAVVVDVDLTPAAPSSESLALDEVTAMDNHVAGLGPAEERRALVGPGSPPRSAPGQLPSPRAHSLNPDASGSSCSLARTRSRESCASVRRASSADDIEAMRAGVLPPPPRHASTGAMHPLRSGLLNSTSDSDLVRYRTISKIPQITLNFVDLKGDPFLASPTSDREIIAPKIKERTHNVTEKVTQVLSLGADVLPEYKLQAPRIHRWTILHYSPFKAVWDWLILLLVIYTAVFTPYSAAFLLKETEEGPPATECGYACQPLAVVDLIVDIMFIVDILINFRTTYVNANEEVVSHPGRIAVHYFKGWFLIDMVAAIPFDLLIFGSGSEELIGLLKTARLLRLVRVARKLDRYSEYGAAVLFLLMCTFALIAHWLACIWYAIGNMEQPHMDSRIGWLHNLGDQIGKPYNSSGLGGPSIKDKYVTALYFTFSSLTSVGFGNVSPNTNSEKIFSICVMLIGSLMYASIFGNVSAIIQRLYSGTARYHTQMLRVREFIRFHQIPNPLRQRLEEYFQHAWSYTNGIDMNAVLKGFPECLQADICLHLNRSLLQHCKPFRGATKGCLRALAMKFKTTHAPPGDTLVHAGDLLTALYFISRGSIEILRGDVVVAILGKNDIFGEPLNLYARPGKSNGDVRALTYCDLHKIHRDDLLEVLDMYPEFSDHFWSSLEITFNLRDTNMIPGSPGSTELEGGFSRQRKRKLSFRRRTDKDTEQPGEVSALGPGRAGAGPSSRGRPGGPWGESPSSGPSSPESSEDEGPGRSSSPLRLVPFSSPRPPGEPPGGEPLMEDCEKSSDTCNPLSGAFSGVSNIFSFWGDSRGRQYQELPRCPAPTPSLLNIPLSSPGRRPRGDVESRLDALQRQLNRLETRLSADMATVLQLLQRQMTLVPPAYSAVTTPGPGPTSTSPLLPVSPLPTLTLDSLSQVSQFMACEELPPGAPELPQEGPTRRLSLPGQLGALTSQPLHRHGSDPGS
Cc1ccc(C(=O)CCNc2ccc(Br)cc2)o1 was tested, and the “hERG current change (%, negative = inhibition) at 1uM” value was 2.93%.
O=C(CCS(=O)(=O)c1ccc2c(c1)NC(=O)CO2)NCc1ccccc1 was tested, and the “hERG current change (%, negative = inhibition) at 1uM” value was 16.6%.
With COc1ccc(C2CC2/C(C)=N/OC(=O)c2cccs2)cc1 (centres unmarked) the “hERG current change (%, negative = inhibition) at 1uM” value was 7.21%.
Cc1nnsc1C(=O)NNc1ccc(C(C)C)cc1 was tested, and the “hERG current change (%, negative = inhibition) at 1uM” value was 11.6%.
CC(/C=C1\N=C(SCc2ccccc2Cl)SC1=O)=C\c1ccccc1 was tested, and the “hERG current change (%, negative = inhibition) at 1uM” value was 11.5%.
With Cc1ccc(C)c(Cn2nc(-c3ccccc3)ccc2=O)c1 the “hERG current change (%, negative = inhibition) at 1uM” value was 16.7%.
In the case of COc1cc(/C=N/NC(=O)CCc2n[nH]c(=O)[nH]c2=O)cc(OC)c1OC, the “hERG current change (%, negative = inhibition) at 1uM” value is reported as 4.79%.
For O=C(Nc1ccc(Cl)cc1)N1CCCN(Cc2ccc(F)cc2)C1, the “hERG current change (%, negative = inhibition) at 1uM” value was -22.4%.
For CC(=O)Oc1ccc(-c2cccc(C(=O)NCCO)c2)cc1, the “hERG current change (%, negative = inhibition) at 1uM” value was 16.3%.
In the case of CCOc1ccc(N2CC(C(=O)NCc3ccccn3)CC2=O)cc1 (centres unmarked), the “hERG current change (%, negative = inhibition) at 1uM” value is reported as 11.7%.
With N#Cc1nc(Cc2cccc3ccccc23)oc1N1CCOCC1 the “hERG current change (%, negative = inhibition) at 1uM” value was -3.96%.
For CS(=O)(=O)c1ccc(C(=O)Nc2ccccc2Cl)cc1, the “hERG current change (%, negative = inhibition) at 1uM” value was 5.48%.
CCOc1cc(C2/C(=C(/O)c3ccc(OC(C)C)cc3)C(=O)C(=O)N2CCCOC)ccc1O (centres unmarked) was tested, and the “hERG current change (%, negative = inhibition) at 1uM” value was 21.3%.
For O=C(Nc1ccc2c(c1)OCO2)C1COc2ccccc2O1 (centres unmarked), the “hERG current change (%, negative = inhibition) at 1uM” value was 12.8%.
In the case of CCn1c(C(C)NS(=O)(=O)c2ccc(Cl)cc2)n[nH]c1=S (centres unmarked), the “hERG current change (%, negative = inhibition) at 1uM” value is reported as 14.7%.
COc1ccc(C(=O)N2c3ccccc3CC2C)cc1OC (centres unmarked) was tested, and the “hERG current change (%, negative = inhibition) at 1uM” value was 11%.
COc1ccccc1CC(=O)NNS(=O)(=O)c1cccc([N+](=O)[O-])c1 was tested, and the “hERG current change (%, negative = inhibition) at 1uM” value was 13.4%.
In the case of CCc1ccc(CN(C)C(=O)c2ccc3c(=O)n4c(nc3c2)CCC4)cc1, the “hERG current change (%, negative = inhibition) at 1uM” value is reported as -2.03%.
CCOC(=O)Cc1csc(NC(=O)CSc2nccn2C)n1 was tested, and the “hERG current change (%, negative = inhibition) at 1uM” value was 10.3%.
CCc1ccccc1NC(=S)N(Cc1ccc(C(=O)O)cc1)Cc1ccc(OC)c(OC)c1 was tested, and the “hERG current change (%, negative = inhibition) at 1uM” value was 12.9%.
For COc1ccc(CCNC(=O)Cn2c(=O)n(-c3cc(F)ccc3F)c(=O)c3sccc32)cc1OC, the “hERG current change (%, negative = inhibition) at 1uM” value was 3.75%.
With O=C(NCCc1ccc(Cl)cc1)C1CC(=O)N(C2CCCC2)C1 (centres unmarked) the “hERG current change (%, negative = inhibition) at 1uM” value was 10.8%.
Cc1ccc(C)c(NC(=S)N/N=C/C(C)c2ccccc2)c1 (centres unmarked) was tested, and the “hERG current change (%, negative = inhibition) at 1uM” value was 0.841%.
For Cc1nnc(-c2ccc(N3CCOCC3)c([N+](=O)[O-])c2)o1, the “hERG current change (%, negative = inhibition) at 1uM” value was 12%.
With Cc1ccccc1-n1nc2c(c1NC(=O)c1cccc(F)c1)CS(=O)C2 (centres unmarked) the “hERG current change (%, negative = inhibition) at 1uM” value was 9.92%.
With C=CCn1c(C)nnc1SCC(=O)Nc1oc(C)c2c(C)n[nH]c(=O)c12 the “hERG current change (%, negative = inhibition) at 1uM” value was 3.06%.
Cc1onc(-c2ccccc2)c1C(=O)N/N=C/c1c(F)cccc1Cl was tested, and the “hERG current change (%, negative = inhibition) at 1uM” value was 15.7%.
For CS(=O)(=O)Nc1ccc(C(=O)N2CCCCC2)cc1, the “hERG current change (%, negative = inhibition) at 1uM” value was 12.5%.
For COc1ccc(OC)c(S(=O)(=O)NCc2cc(-c3ccccc3)no2)c1, the “hERG current change (%, negative = inhibition) at 1uM” value was 11.7%.
With Cc1ccc(/C=C2\SC(=S)N(CCC(=O)NNS(=O)(=O)c3ccccc3)C2=O)cc1 the “hERG current change (%, negative = inhibition) at 1uM” value was 11.7%.
In the case of Cc1cccc(-n2c(SCC(=O)N3CCCC3)nnc2-c2ccccn2)c1C, the “hERG current change (%, negative = inhibition) at 1uM” value is reported as 5.57%.
With O=C(c1sc2cccc(F)c2c1Cl)N1CCN(c2ncccn2)CC1 the “hERG current change (%, negative = inhibition) at 1uM” value was -65.4%.
In the case of COC(=O)c1ccccc1NC(=O)CSc1n[nH]c(CC(C)C)n1, the “hERG current change (%, negative = inhibition) at 1uM” value is reported as 8.94%.
COc1ccccc1N1CCN(c2ccc(Cl)nn2)CC1 was tested, and the “hERG current change (%, negative = inhibition) at 1uM” value was 11.8%.
For O=C(COCc1cc(-c2ccco2)on1)NC1CCCCC1, the “hERG current change (%, negative = inhibition) at 1uM” value was 5.08%.
With Cc1ccccc1C(=O)N1CCc2ccccc2C1 the “hERG current change (%, negative = inhibition) at 1uM” value was 10.1%.
With O=C(Cn1ncc(Cl)c(Cl)c1=O)N1CCN(S(=O)(=O)c2ccc3ccccc3c2)CC1 the “hERG current change (%, negative = inhibition) at 1uM” value was -3.91%.
With O=P(Cc1cccc[n+]1[O-])(c1ccccc1)c1ccccc1 the “hERG current change (%, negative = inhibition) at 1uM” value was 11.2%.
With CN(CCC#N)S(=O)(=O)c1ccc2[nH]cc(C(=O)NCCc3ccccc3)c(=O)c2c1 the “hERG current change (%, negative = inhibition) at 1uM” value was 3.35%.
C#CCOCCOCCOCCNc1nc(N2CCN(C(=O)CCCCCCCCCCNC(=O)[C@H](CCC(=O)O)n3cc(CCCCCN)nn3)CC2)nc(N2CCN(C(=O)CCCCCCCCCCNC(=O)[C@@H]([C@H](C)O)n3cc(C)nn3)CC2)n1 was tested, and the “hERG current change (%, negative = inhibition) at 1uM” value was 20.8%.
COc1ccc(C(=O)COC(=O)CCCC(=O)NC2CCCCC2)cc1 was tested, and the “hERG current change (%, negative = inhibition) at 1uM” value was 4.94%.
With Cc1ccccc1NC(=O)N1CCCC1C(=O)NCc1ccccc1 (centres unmarked) the “hERG current change (%, negative = inhibition) at 1uM” value was 14.1%.
Cc1ccc(N2C(=O)NC(NS(=O)(=O)c3ccccc3)(C(F)(F)F)C2=O)cc1C (centres unmarked) was tested, and the “hERG current change (%, negative = inhibition) at 1uM” value was 39.2%.
For NS(=O)(=O)c1cccc(NC(=O)COC(=O)CCc2ccccc2)c1, the “hERG current change (%, negative = inhibition) at 1uM” value was 10.5%.
